{"source": "paper PMC7819943", "about": "“Rice protein-binding microarrays: a tool to detect cis-acting elements near promoter regions in rice”", "note": "The other results are listed elsewhere or left out.", "data": [{"molecular_target": "T1, OsWOX13 (Oryza sativa, UniProt Q5QMM3 1-267)", "T1 sequence": "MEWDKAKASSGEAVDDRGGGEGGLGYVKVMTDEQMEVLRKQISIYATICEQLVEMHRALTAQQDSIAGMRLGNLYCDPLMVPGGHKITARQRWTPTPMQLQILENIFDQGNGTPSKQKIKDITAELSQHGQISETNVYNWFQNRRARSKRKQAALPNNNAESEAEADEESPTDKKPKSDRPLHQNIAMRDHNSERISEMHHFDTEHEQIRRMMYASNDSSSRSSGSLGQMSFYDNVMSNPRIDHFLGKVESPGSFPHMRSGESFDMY", "experiment": "protein-binding microarray (RPBM); PBS, 2% BSA, 51.3 ng/ul salmon testes DNA, 50 uM zinc acetate, 200 nM TF, 25 C, 1 h; high values mean tight binding", "conditions": "protein: recombinant; tags: N-terminal polyhistidine and DsRed monomer fusion (pET32a); label: CyDye5-dUTP incorporated in the synthesized complementary strand; 3' TTTTT single-stranded linker to array surface; dsDNA, one strand shown", "procedure,_shortened": "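In PBS with 2% BSA, salmon testes DNA and 50 µM zinc acetate, 200 nM protein was incubated on a custom Agilent array at 25 °C for 1 h and then washed off. The array had been made double-stranded by primer extension with Cy5-dUTP and blocked with 2% BSA. The proteins were transcription factors fused N-terminally to polyhistidine and DsRed, expressed in E. coli BL21-CodonPlus and purified on Ni–NTA. The binding signal is per-feature fluorescence intensity (arbitrary units) from an Axon 4000B scanner.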", "values": [{"sequence": "GTCTGACAGAGATAGGAGAGCAGTAGTAGTAGATCACCCTCGGAGTCACCTAGTGCAG", "binding signal": "6940 fluorescence intensity (a.u.)"}, {"sequence": "TGGAAATTGACTCCGAATCTCTGATGAACGGCGGTGGGGCCGGAGTCACCTAGTGCAG", "binding signal": "27200 fluorescence intensity (a.u.)"}, {"sequence": "CCTGTAAATTGCGAGACGAATTTATTAAGCCTAATTAATCCGGAGTCACCTAGTGCAG", "binding signal": "17900 fluorescence intensity (a.u.)"}, {"sequence": "CAAATTTAACTGAGTTAATAGACAAATATAGTAATATTTACGGAGTCACCTAGTGCAG", "binding signal": "12700 fluorescence intensity (a.u.)"}, {"sequence": "CCTAAAATTACAATAATTCCAAATTCAGACAGTAAAACTACGGAGTCACCTAGTGCAG", "binding signal": "3310 fluorescence intensity (a.u.)"}, {"sequence": "ACAATCTGACCCAAATCAATCATACCGCGACATCGCATGCCGGAGTCACCTAGTGCAG", "binding signal": "11100 fluorescence intensity (a.u.)"}, {"sequence": "TTTTAACAGTAGTATAATTAGCTTGTATGAATAAACCTGTCGGAGTCACCTAGTGCAG", "binding signal": "9210 fluorescence intensity (a.u.)"}, {"sequence": "CCCTTGAATCAATTAATCAACTGCTTTAGTAGTTCTTACGCGGAGTCACCTAGTGCAG", "binding signal": "21400 fluorescence intensity (a.u.)"}, {"sequence": "ATAGCTAATTTTCGGTATGTTACACCATCCATCTGCCATGCGGAGTCACCTAGTGCAG", "binding signal": "5050 fluorescence intensity (a.u.)"}, {"sequence": "AAAATCAGACAGAAAGCCAATTTGACCTTGTTCCTTTTGTCGGAGTCACCTAGTGCAG", "binding signal": "3430 fluorescence intensity (a.u.)"}, {"sequence": "TTAATTATATGTTAATCAATCGCTCTGTTTTATACGTTGGCGGAGTCACCTAGTGCAG", "binding signal": "33200 fluorescence intensity (a.u.)"}, {"sequence": "AAGATTTAATTGTTACGAACACAACGGCGTAATCGGATCGCGGAGTCACCTAGTGCAG", "binding signal": "36000 fluorescence intensity (a.u.)"}, {"sequence": "GGGTTTTCACAAATTGATCTCAAATTCGATTTCTCCTCTGCGGAGTCACCTAGTGCAG", "binding signal": "3790 fluorescence intensity (a.u.)"}, {"sequence": "TTAGCTAATTGTACAGTGTTGTACGTCTGCATTTTGTTGCCGGAGTCACCTAGTGCAG", "binding signal": "17600 fluorescence intensity (a.u.)"}, {"sequence": "TGGCACACTAATTAGGGAGAAAATCTCTATCTTGTGTTGTCGGAGTCACCTAGTGCAG", "binding signal": "9710 fluorescence intensity (a.u.)"}, {"sequence": "GGTGTTCTGTTAACTAATCTGAACAACATGATGCTCATCCCGGAGTCACCTAGTGCAG", "binding signal": "3290 fluorescence intensity (a.u.)"}, {"sequence": "TTGATGTGGAGTAATGGTGTTAACATGCAAATCATCCCTCCGGAGTCACCTAGTGCAG", "binding signal": "3480 fluorescence intensity (a.u.)"}, {"sequence": "TCTAATATGTTGATATTGATTACCTTGTAGCACCTACTTGCGGAGTCACCTAGTGCAG", "binding signal": "19900 fluorescence intensity (a.u.)"}, {"sequence": "ACTATTAGTGTATTATTAATTAAATATTACTGTATTAACGCGGAGTCACCTAGTGCAG", "binding signal": "3490 fluorescence intensity (a.u.)"}, {"sequence": "CCAGTATTAATGTCAATTAGTTTTCCAATCCATGATCAAACGGAGTCACCTAGTGCAG", "binding signal": "17000 fluorescence intensity (a.u.)"}, {"sequence": "TATAATAATTGCTAGTGAGTGATGATATGGCACACTTGCACGGAGTCACCTAGTGCAG", "binding signal": "21900 fluorescence intensity (a.u.)"}, {"sequence": "ATCCTCTATAATTATGGACAGAGGGAGTATGTTTATCTACCGGAGTCACCTAGTGCAG", "binding signal": "6940 fluorescence intensity (a.u.)"}, {"sequence": "AGTGTTCTAATAGATCAATTGATTTCGGTACTAATCAGATCGGAGTCACCTAGTGCAG", "binding signal": "11400 fluorescence intensity (a.u.)"}, {"sequence": "GTCACCGTGACTGGCGTTGCCAAACTAGCGTGAACAAAAGCGGAGTCACCTAGTGCAG", "binding signal": "3150 fluorescence intensity (a.u.)"}, {"sequence": "TTAACTTGTCAACGAATCTGATTTTCATCCTTCAACCGAACGGAGTCACCTAGTGCAG", "binding signal": "4150 fluorescence intensity (a.u.)"}, {"sequence": "AAAATTAATTCACACTTTAAATGTTACATGGATTTGAACTCGGAGTCACCTAGTGCAG", "binding signal": "15500 fluorescence intensity (a.u.)"}, {"sequence": "TGAAAATTTAACTTATGTTATAAACATAAGGCACGCAATGCGGAGTCACCTAGTGCAG", "binding signal": "4910 fluorescence intensity (a.u.)"}, {"sequence": "GTTTATAATTTGCACAATTTCTATAGGGTTTCAGTTAAATCGGAGTCACCTAGTGCAG", "binding signal": "4710 fluorescence intensity (a.u.)"}, {"sequence": "ACCTTAATAATGAAATTTCTTGCACAATTTTAGTTCATATCGGAGTCACCTAGTGCAG", "binding signal": "6300 fluorescence intensity (a.u.)"}, {"sequence": "CGGATGATTACTGTAGCATCATTGTAGCAAACCATAGATTCGGAGTCACCTAGTGCAG", "binding signal": "11200 fluorescence intensity (a.u.)"}, {"sequence": "ATTAATTAGGCTTAATAAATTCATGTCGCAATTTATAGGCCGGAGTCACCTAGTGCAG", "binding signal": "32900 fluorescence intensity (a.u.)"}, {"sequence": "TTATACCAATCACAAGTTCATTTTAACAATTTGCTTACAGCGGAGTCACCTAGTGCAG", "binding signal": "17900 fluorescence intensity (a.u.)"}, {"sequence": "ATAATTAGCAGATGATTACTATAGCATCACTGTAGCAAATCGGAGTCACCTAGTGCAG", "binding signal": "22300 fluorescence intensity (a.u.)"}, {"sequence": "TTTCGTAGTTCTAATTTTCTGATTGTTATCGATATGGTTACGGAGTCACCTAGTGCAG", "binding signal": "5330 fluorescence intensity (a.u.)"}, {"sequence": "AGAAATAATATCTTACTAATTAGCAACTGAGGTTTCTCTTCGGAGTCACCTAGTGCAG", "binding signal": "10600 fluorescence intensity (a.u.)"}, {"sequence": "TTTATGGCGTCAATCATTTAACAGTTACTTTTAAACGCGGCGGAGTCACCTAGTGCAG", "binding signal": "19900 fluorescence intensity (a.u.)"}, {"sequence": "ACTTCAGTCATTTTCCATCACATCAACATGTCATATACATCGGAGTCACCTAGTGCAG", "binding signal": "4220 fluorescence intensity (a.u.)"}, {"sequence": "CTTCCTCATCAACTCAATGATCGACGTATATATATATACACGGAGTCACCTAGTGCAG", "binding signal": "3560 fluorescence intensity (a.u.)"}, {"sequence": "AATTTAGATATGAAGTCTGATTAGATTCGTAGTATGTGTTCGGAGTCACCTAGTGCAG", "binding signal": "20300 fluorescence intensity (a.u.)"}, {"sequence": "GGATCATTGCCCTTGATTTATCGCCTAATATCACTGCGATCGGAGTCACCTAGTGCAG", "binding signal": "5280 fluorescence intensity (a.u.)"}, {"sequence": "GGTGTAAATTAGTCAATCTTGAATCGAAGAGAGTATGGAACGGAGTCACCTAGTGCAG", "binding signal": "25900 fluorescence intensity (a.u.)"}, {"sequence": "GTGAGATTAGATTCCATGATTGGACAAAAGTGTGTTAATCCGGAGTCACCTAGTGCAG", "binding signal": "47900 fluorescence intensity (a.u.)"}]}]}
